Laboratory results reported in paper PMC4336329 (PLoS ONE, 2015).
In all, about 310,000 compounds went through this assay and about 14,000 (4.5%) showed an effect of 50% or more. Effects have a minus sign here. Some of the results follow.

biological target: human ether-à-go-go-related gene (hERG) potassium channel (human, UniProt Q12809); assay: primary screen, population patch clamp on CHO cells stably expressing hERG
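Note: peak tail current of the secondary pulse compared with the same well before compound.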

Chain of human ether-à-go-go-related gene (hERG) potassium channel (Q12809 whole entry, looked up): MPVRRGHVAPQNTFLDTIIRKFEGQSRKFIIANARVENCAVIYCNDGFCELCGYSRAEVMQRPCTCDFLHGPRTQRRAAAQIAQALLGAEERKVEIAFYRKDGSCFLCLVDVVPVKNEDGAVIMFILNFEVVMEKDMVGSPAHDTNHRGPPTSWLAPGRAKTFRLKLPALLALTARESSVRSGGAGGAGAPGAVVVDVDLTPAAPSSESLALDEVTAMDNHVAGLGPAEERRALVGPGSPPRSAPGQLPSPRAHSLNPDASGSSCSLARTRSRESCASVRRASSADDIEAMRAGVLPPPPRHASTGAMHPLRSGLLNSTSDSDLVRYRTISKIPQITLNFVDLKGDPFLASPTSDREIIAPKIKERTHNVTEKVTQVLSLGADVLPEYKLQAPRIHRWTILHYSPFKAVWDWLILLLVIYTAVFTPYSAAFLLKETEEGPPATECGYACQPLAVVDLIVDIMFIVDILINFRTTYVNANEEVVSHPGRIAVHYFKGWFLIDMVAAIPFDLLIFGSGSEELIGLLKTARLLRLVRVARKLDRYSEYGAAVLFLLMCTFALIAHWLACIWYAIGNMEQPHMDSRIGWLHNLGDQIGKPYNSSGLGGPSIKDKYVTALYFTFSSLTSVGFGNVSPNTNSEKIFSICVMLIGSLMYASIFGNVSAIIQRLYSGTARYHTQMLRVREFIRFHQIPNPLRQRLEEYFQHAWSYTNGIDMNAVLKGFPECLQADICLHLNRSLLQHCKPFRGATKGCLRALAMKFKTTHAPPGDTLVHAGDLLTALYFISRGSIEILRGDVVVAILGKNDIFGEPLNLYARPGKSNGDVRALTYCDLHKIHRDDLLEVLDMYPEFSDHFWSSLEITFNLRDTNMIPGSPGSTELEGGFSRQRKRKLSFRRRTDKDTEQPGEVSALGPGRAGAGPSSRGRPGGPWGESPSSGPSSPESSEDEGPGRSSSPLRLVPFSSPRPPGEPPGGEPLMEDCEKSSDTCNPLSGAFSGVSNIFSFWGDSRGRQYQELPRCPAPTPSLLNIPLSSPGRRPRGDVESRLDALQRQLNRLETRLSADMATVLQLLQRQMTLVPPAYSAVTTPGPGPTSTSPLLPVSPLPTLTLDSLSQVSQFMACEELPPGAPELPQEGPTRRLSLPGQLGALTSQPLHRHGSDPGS

Row | SMILES | hERG current change (%, negative = inhibition) at 10uM [%]
1 | O=C(CSc1nc2ccccc2c(=O)n1-c1ccc(F)cc1)Nc1cc(S(=O)(=O)N2CCOCC2)ccc1Cl | 6.71
2 | O=C1N=C(C=c2ccc(=Cc3[nH]c(=O)[nH]c3O)cc2)C(=O)N1 | 17.3
3 | O=C(CSc1ccccn1)N1CCN(c2ccccc2)CC1 | 7.55
4 | O=C(CSc1ccc2nnc(-c3ccccn3)n2n1)Nc1ccc(F)cc1 | -48.2
5 | COC(=O)c1ccccc1NC(=O)C1CC(c2ccc(F)cc2)=NO1 (stereo not drawn) | -14.6
6 | O=C(CCC1CCCN(c2ncccn2)C1)NCc1ccc(F)c(F)c1 (stereo not drawn) | -40.8
7 | CCCCn1c(SCC(=O)Nc2ccc3c(c2)OCCO3)nnc1C(CC)N(C)C (stereo not drawn) | 2.48
8 | CC1CCN(C(=O)CCCNC(=O)Cn2cnc3sc4c(c3c2=O)CCCC4)CC1 | -34.6
9 | CN(Cc1ccccn1)C(=O)c1ccc2nc(Cc3cccc(Cl)c3)oc2c1 | -35.8
10 | CC(=O)Nc1ccc(SCC(=O)c2ccc(Br)s2)cc1 | 19.5
11 | COc1ccc(NC2=NCC(=O)N2c2ccccc2F)cc1.Cl | 12.2
12 | CC(=O)Nc1cccc(NC(=S)Nc2ccc(F)c(Cl)c2)c1 | -11.6
13 | COc1ccc(NC(=S)Nc2ccc(S(N)(=O)=O)cc2)c(C)c1 | 20.7
14 | Cc1nc([N+](=O)[O-])nn1C12CC3CC(CC(Br)(C3)C1)C2 | 2.5
15 | O=c1[nH]c2cc3c(cc2cc1C(c1nnnn1C1CCCCC1)N1CCSCC1)OCCO3 (stereo not drawn) | -2.71
16 | CCC1CCCCN1CCCNC(=O)C1CCC(=O)N1Cc1ccc(C)cc1 (stereo not drawn) | 5.79
17 | CN(CCNC(=O)c1cn(C)c2ccc(S(=O)(=O)N3CCCC3)cc2c1=O)CCc1ccccc1 | -41.2
18 | CC(NC(=O)c1ccco1)C(=O)N1CCN(S(=O)(=O)c2ccccc2C#N)CC1 (stereo not drawn) | -8.15
19 | CC(OC(=O)/C=C/c1cccc(F)c1)C(=O)NC1CCCCC1C (stereo not drawn) | 14.1

Row | SMILES | hERG current change (%, negative = inhibition) at 10uM [%]
20 | Cc1ncoc1C(=O)N1CCc2c([nH]c3ccccc23)C1C(C)(C)C (stereo not drawn) | -65.3
21 | CCOC(=O)c1c(C)[nH]c(C2=NNC(=NC(C)COC)SC2)c1C (stereo not drawn) | 12.6
22 | Cc1ccc(C(C)C)c(OCC(=O)N2CCN(Cc3nc4cc([N+](=O)[O-])ccc4n3C)CC2)c1 | -65.8
23 | O=C(Nc1nnc(SCc2ccc(F)cc2)s1)c1cccnc1Cl | 2.48
24 | N#Cc1ccc(C(=O)Nc2nnc(-c3cccs3)o2)cc1 | 5.28
25 | COc1ccc(/C=C/C(=O)NCC(=O)N/N=C/c2cccs2)cc1 | 0.0661
26 | CC1CC(=O)N(CC(=O)Nc2ccc(F)cc2F)c2ccccc2S1(=O)=O (stereo not drawn) | -10.7
27 | Cc1nc2cc(C(F)(F)F)ccc2n1C1CCN(Cc2nnnn2CCc2ccccc2)CC1 | -68.4
28 | COc1ccc(-c2ccnc3c(C(=O)O)cnn23)cc1 | 20.6
29 | Cc1cc2c3ccccc3ncn2n1 | 20.9
30 | CCCC(=O)NC1C2CC3CC(C2)CC1C3 (stereo not drawn) | 7.21
31 | O=C(Cn1cnc2c(nnn2-c2ccccc2)c1=O)NCCc1ccccc1 | -22.7
32 | COc1ccc(N=CC2=C(O)c3ccccc3C2=O)cc1 | 11.1
33 | CNC(=S)N(CCO)Cc1cc2cc3c(cc2[nH]c1=O)OCCO3 | 21.2
34 | COc1cccc2[nH]c3c(=O)n(CCCN4CCOCC4)cnc3c12 | -7.06
35 | CCOC(=O)c1cnc2nc[nH]n2c1=O | 9.75
36 | O=C(NN1C(=O)c2ccccc2C1=O)c1ccccc1[N+](=O)[O-] | 7.17
37 | O=C(Nc1ccccn1)c1ccc([N+](=O)[O-])cc1Cl | -3.15
38 | CCN(CC)C(=O)COc1ccc2c3c(c(=O)oc2c1)CCCC3 | -12.8

Row | SMILES | hERG current change (%, negative = inhibition) at 10uM [%]
39 | CC(C)CC(=O)NCCCCc1ccccc1 | -12.6
40 | Cc1ccccc1NC(=O)NCCCCc1ccccc1 | -0.346
41 | O=C(CCNS(=O)(=O)c1ccc(Br)cc1)NCc1ccc(Cl)cc1 | 6.61
42 | Cc1csc2c(N3CCN(C(=S)Nc4ccc(C(F)(F)F)cc4)CC3)ncnc12 | -9.35
43 | Cc1ccc(S(=O)(=O)N2CCN3CCCC3C2)cc1 (stereo not drawn) | -6.76
44 | Cl.O=C(c1ccc(Cn2ccc([N+](=O)[O-])n2)cc1)N1CCN(Cc2ccccc2)CC1 | -56.1
45 | COc1ccc(C)cc1Nc1nc(N)c2ccccc2n1.Cl | -12.8
46 | O=C(O)CCCN1C(=O)C(=O)/C(=C(/O)c2ccc(Cl)cc2)C1c1ccccc1 (stereo not drawn) | 10.3
47 | Cc1ccc(OCC(=O)NNC(=O)[C@@H]2CCCC[C@@H]2C(=O)O)c(Br)c1 | 14.1
48 | CCCCC(c1nnnn1CCOC)N1CCN(Cc2ccccc2)CC1.Cl (stereo not drawn) | -46.9
49 | CCc1cc(CNC(=O)CCc2nnc(Cc3cccc(C)c3)o2)on1 | 10.2
50 | COC(=O)c1cc(C(=O)NCc2ccc3c(c2)OCO3)cc([N+](=O)[O-])c1 | -3.75
51 | CC(=O)c1sc(NCc2ccccc2)nc1C | 18.6
52 | O=C(CCc1nc2ccccc2[nH]1)Nc1ccccc1F | 9.18
53 | CCOc1ccc(-c2nc(CSc3nnc(N)s3)cs2)cc1 | 8.94
54 | CCC(CC)C(=O)NC1CCSC1=O (stereo not drawn) | 14.9
55 | O=C(c1ccc(-c2cc3ccccc3oc2=O)cc1)N1CCN(c2ccc(Cl)cc2[N+](=O)[O-])CC1 | 2.07
56 | CCN(C(=O)COc1cccc2cccnc12)C1CCS(=O)(=O)C1 (stereo not drawn) | 10.8
57 | CCN(c1nc(N)c(C(=O)N=C(N)N)nc1Cl)C(C)C | -38.9
